The target of this assay is T1, CCR5 (G-protein coupled chemokine receptor) on human PBMC (human, UniProt P51681 1-352).
T1 construct: whole, on cells; The cells were primary PBMC, not transfectants, so the receptor is assigned through the CCR5 agonist MIP-1β; also called G-protein Chemokine Receptor CCR5
Nature of the assay: 125I-MIP-1β competition binding on human PBMC cultured 2 days; labelled competitor 0.17 nM 125I-MIP-1β; cells preincubated with sample 45 min at 37 °C, then hot ligand 60 min at RT; cell pellet collected by density centrifugation through oil; readout cpm. As for the experimental part:
Human PBMC were purified from whole blood and cultured for 2 days. […] After 60 minutes, cell bound ¹²⁵I-MIP-1 was separated from unbound ¹²⁵I-MIP-1, and the radioactivity determined.
PBMCs were grown, purified, and suspended in calcium buffer as described above in Example 49.

T1 sequence (P51681 whole entry): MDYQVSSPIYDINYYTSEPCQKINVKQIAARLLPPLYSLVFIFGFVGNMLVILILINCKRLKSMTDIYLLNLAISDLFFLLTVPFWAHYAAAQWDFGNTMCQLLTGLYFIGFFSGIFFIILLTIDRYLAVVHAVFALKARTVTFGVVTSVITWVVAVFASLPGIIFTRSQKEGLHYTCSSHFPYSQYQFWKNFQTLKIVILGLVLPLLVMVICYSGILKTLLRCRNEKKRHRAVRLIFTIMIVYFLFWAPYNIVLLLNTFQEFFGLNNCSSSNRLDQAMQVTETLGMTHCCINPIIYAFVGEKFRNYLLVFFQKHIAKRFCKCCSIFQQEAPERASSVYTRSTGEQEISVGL

B1: Ckb1 fusion 1948 (pSAC35:d8HCC-1C.O.G[…]:HSA), ck-beta-1 […] fused with the mature form of HSA (other)
chain: GPYHPSECCFTYTTYKIPRQRIMDYYETNSQCSKPGIVFITKRGHSVCTNPSDKWVQDYIKDMKENDAHKSEVAHRFKDLGEENFKALVLIAFAQYLQQCPFEDHVKLVNEVTEFAKTCVADESAENCDKSLHTLFGDKLCTVATLRETYGEMADCCAKQEPERNECFLQHKDDNPNLPRLVRPEVDVMCTAFHDNEETFLKKYLYEIARRHPYFYAPELLFFAKRYKAAFTECCQAADKAACLLPKLDELR[about 200 residues cut from this listing]NLIKQNCELFEQLGEYKFQNALLVRYTKKVPQVSTPTLVEVSRNLGKVGSKCCKHPEAKRMPCAEDYLSVVLNQLCVLHEKTPVSDRVTKCCTESLVNRRPCFSALEVDETYVPKEFNAETFTFHSADICTLSEKERQIKKQTALVELVKHKPKATKEQLKAVMDDFAAFVEKCCKADDKETCFAEEGKKLVAASQAALGL
notes: Albumin fusion protein expressed in yeast
For B1, the binding result was “binds”.

The record behind these values is patent US20030143191A1 (published 2003).
